Data published in the antibiotic and cytotoxicity screens of Wong et al. (2023).
This is one part of the list.

The compounds below were run on HepG2 (assay: cytotoxicity call (relative viability < 0.9)). Details: 10 µM.

Row | SMILES | cytotoxicity call
1 | O=C(NCCN1CCCC1)[C@H]1[C@H](CO)[C@H]2Cn3c(cccc3=O)[C@@H]1N2C(=O)c1ccccc1 | inactive
2 | COc1ccc(S(=O)(=O)N[C@H]2C=C[C@@H](CC(=O)NCCc3ccncc3)O[C@@H]2CO)cc1 | inactive
3 | C[C@@H]1CN([C@H](C)CO)C(=O)c2cc(NC(=O)Nc3ccc4c(c3)OCO4)ccc2O[C@H]1CN(C)C(=O)Nc1ccc(C(F)(F)F)cc1 | inactive
4 | C[C@H]1CN([C@@H](C)CO)S(=O)(=O)c2ccc(C#CC3CC3)cc2O[C@@H]1CN(C)C(=O)c1cccc(F)c1 | inactive
5 | COc1ccc(NC(=O)Nc2ccc3c(c2)C(=O)N([C@@H](C)CO)C[C@@H](C)[C@@H](CN(C)S(=O)(=O)c2ccc(Cl)cc2)OCCCC[C@@H](C)O3)cc1 | inactive
6 | C[C@@H]1CN([C@@H](C)CO)C(=O)c2cccc(NS(=O)(=O)c3cn(C)cn3)c2O[C@@H]1CN(C)Cc1ccccc1 | inactive
7 | Cc1ccc(S(=O)(=O)N(C)C[C@H]2Oc3ncc(-c4ccncc4)cc3C(=O)N([C@H](C)CO)C[C@H]2C)cc1 | inactive
8 | Cc1noc(C)c1S(=O)(=O)Nc1ccc2c(c1)CC(=O)N([C@@H](C)CO)C[C@@H](C)[C@@H](CN(C)S(=O)(=O)c1cn(C)cn1)O2 | inactive
9 | COc1ccc2cc(C(C)C(=O)O)ccc2c1 (stereo not given) | inactive
10 | Cc1ccc(S(=O)(=O)Nc2ccc3c(c2)C(=O)N([C@@H](C)CO)C[C@@H](C)[C@H](CN(C)Cc2ccncc2)OCCCC[C@H](C)O3)cc1 | inactive
11 | C[C@H]1CCCCO[C@@H](CN(C)C(=O)Nc2ccc(C(F)(F)F)cc2)[C@@H](C)CN([C@@H](C)CO)C(=O)c2cc(NC(=O)Nc3ccc4c(c3)OCO4)ccc2O1 | inactive
12 | Cc1ccc(S(=O)(=O)N(C)C[C@@H]2Oc3ccc(NC(=O)c4ccncc4)cc3C(=O)N([C@@H](C)CO)C[C@H]2C)cc1 | inactive
13 | Cc1noc(C)c1NC(=O)Nc1cccc2c1O[C@H](CN(C)S(=O)(=O)c1cn(C)cn1)[C@@H](C)CN([C@H](C)CO)C2=O | inactive
14 | C[C@H](CO)N1C[C@H](C)[C@H](CN(C)C(=O)Cc2cccnc2)Oc2cc(C#Cc3ccccc3F)ccc2S1(=O)=O | inactive
15 | C[C@@H]1CN([C@H](C)CO)C(=O)Cc2cc(NC(=O)CCC(F)(F)F)ccc2O[C@H]1CN(C)Cc1ccc(C(F)(F)F)cc1 | active
16 | COCC#Cc1ccc2c(c1)O[C@H](CN(C)C(=O)C1CCCCC1)[C@H](C)CN([C@@H](C)CO)S2(=O)=O | inactive
17 | COc1ccc(S(=O)(=O)N(C)C[C@@H]2Oc3c(cccc3N(C)C)C(=O)N([C@@H](C)CO)C[C@@H]2C)cc1 | inactive
18 | C[C@H]1CN([C@@H](C)CO)C(=O)Cc2cc(NC(=O)Nc3ccc(C(F)(F)F)cc3)ccc2O[C@H]1CN(C)C(=O)Nc1ccc(C(F)(F)F)cc1 | active
19 | C[C@@H]1CN([C@H](C)CO)C(=O)Cc2cc(NC(=O)C3CC3)ccc2O[C@@H]1CN(C)S(=O)(=O)c1ccc(F)cc1 | inactive
20 | COCC(=O)Nc1ccc2c(c1)C(=O)N(C)C[C@H](OC)[C@H](C)CN(C(=O)Cc1cccnc1)[C@H](C)CO2 | inactive

Row | SMILES | cytotoxicity call
21 | C[C@H]1CN([C@@H](C)CO)C(=O)c2c(c3ccccc3n2C)-c2ccccc2CO[C@@H]1CN(C)Cc1ccccc1C(F)(F)F | inactive
22 | CC(C)NC(=O)N[C@H]1C=C[C@@H](CC(=O)NCCCN(C)C)O[C@@H]1CO | inactive
23 | O=C(C[C@@H]1CC[C@H]2[C@@H](COC[C@H](O)CN2C(=O)Nc2cc(Cl)cc(Cl)c2)O1)N1CCOCC1 | inactive
24 | C[C@@H]1CN([C@H](C)CO)C(=O)Cc2cc(NC(=O)Nc3ccc(F)cc3)ccc2O[C@@H]1CN(C)CC1CCCCC1 | active
25 | C[C@@H]1CN([C@H](C)CO)C(=O)c2cc(NC(=O)NC3CCCCC3)ccc2O[C@@H](C)CCCCO[C@@H]1CN(C)C(=O)Cc1ccccc1 | inactive
26 | C[C@H]1CN([C@@H](C)CO)C(=O)c2cccc(NC(=O)c3ccncc3)c2O[C@H]1CN(C)S(=O)(=O)c1cn(C)cn1 | inactive
27 | c1ccc(Cc2nn[nH]n2)cc1 | inactive
28 | C[C@H]1CN([C@@H](C)CO)S(=O)(=O)c2ccc(Br)cc2O[C@H]1CN(C)C(=O)c1ccccc1F | inactive
29 | C[C@H](CO)N1C[C@H](C)[C@@H](CN(C)C(=O)Nc2ccccc2)Oc2c(NC(=O)Nc3cccc4ccccc34)cccc2C1=O | inactive
30 | C[C@@H]1CN([C@H](C)CO)C(=O)c2cc(NC(=O)Cn3cnnn3)ccc2O[C@H]1CN(C)C(=O)Nc1ccc(F)cc1 | inactive
31 | Cc1noc(C)c1S(=O)(=O)Nc1ccc2c(c1)C(=O)N([C@H](C)CO)C[C@H](C)[C@H](CN(C)Cc1ccccc1)OCCCC[C@H](C)O2 | inactive
32 | COCCNC(=O)C[C@@H]1CC[C@@H]2[C@H](COC[C@H](O)CN2C(=O)Nc2ccc3c(c2)OCO3)O1 | inactive
33 | C[C@H](CO)N1C[C@H](C)[C@@H](CN(C)S(=O)(=O)c2ccc(F)cc2)Oc2c(NC(=O)Nc3cccc4ccccc34)cccc2C1=O | inactive
34 | COc1ccc2c3c([nH]c2c1)[C@@H](CO)N(C[C@]13CCN(CC1)CC1CCCC1)S(=O)(=O)c1cn(cn1)C | inactive
35 | C[C@@H]1CCCCO[C@H](CN(C)C(=O)c2ccccc2)[C@H](C)CN([C@@H](C)CO)C(=O)c2cc(NC(=O)Nc3ccc(F)cc3)ccc2O1 | inactive
36 | O=C(C[C@@H]1CC=CCC[C@@H](Cc2ccc(F)cc2)C(=O)OC[C@H](Cc2c[nH]c3ccccc23)NC1=O)N[C@H](CO)Cc1ccccc1 | active
37 | O=C(O)Cn1cc2c(n1)CCCC2 | inactive
38 | COc1ccc(NC(=O)Nc2ccc3c(c2)C(=O)N([C@H](C)CO)C[C@@H](C)[C@H](CN(C)C(=O)NC2CCCCC2)OCCCC[C@H](C)O3)cc1 | inactive
39 | C[C@H](CO)N1C[C@H](C)[C@H](CN(C)C(=O)NC2CCCCC2)OCCCC[C@H](C)Oc2ccc(NS(=O)(=O)c3ccccc3)cc2C1=O | active
40 | C[C@H]1CN([C@@H](C)CO)C(=O)Cc2cc(NS(=O)(=O)c3ccccc3)ccc2O[C@@H]1CN(C)Cc1ccc(Cl)c(Cl)c1 | active
